# Reference: the supplement of paper PMC8728848
# Some of the results follow.
# Tests used:
# Assay in all cases: glycan array binding signal (z-score within array); higher = stronger binding
# Conditions in all cases: glycan notation: IUPAC condensed, linker removed
# [1] = target: Fuc(a1-2)Gal
# Outline: (§1)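 Glycan array data came from 3228 arrays in the Consortium for Functional Glycomics database, and only arrays with an available protein sequence were kept. Glycan names were put into IUPAC-condensed notation, and columns mapping to the same glycan were averaged. The binding signal is a within-array Z-score, averaged across arrays of one protein sequence run at different concentrations or buffers and across linkers. A negative Z-score can be read as non-binding.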
# [2] = target: Fuc(a1-2)Gal(b1-3)GalNAc
# Outline: as §1
# [3] = target: Fuc(a1-2)Gal(b1-3)GalNAc(a1-3)[Fuc(a1-2)]Gal(b1-4)Glc
# Outline: as §1
# [4] = target: Fuc(a1-2)Gal(b1-3)GalNAc(a1-3)[Fuc(a1-2)]Gal(b1-4)GlcNAc
# Outline: as §1
# [5] = target: Fuc(a1-2)Gal(b1-3)GalNAc(b1-3)Gal
# Outline: as §1
# [6] = target: Fuc(a1-2)Gal(b1-3)GalNAc(b1-3)Gal(a1-4)Gal(b1-4)Glc
# Outline: as §1
# [7] = target: Fuc(a1-2)Gal(b1-3)GalNAc(b1-4)[Neu5Ac(a2-3)]Gal(b1-4)Glc
# Outline: as §1
# [8] = target: Fuc(a1-2)Gal(b1-3)GlcNAc
# Outline: as §1
# [9] = target: Fuc(a1-2)Gal(b1-3)GlcNAc(b1-2)Man(a1-3)[Fuc(a1-2)Gal(b1-3)GlcNAc(b1-2)Man(a1-6)]Man(b1-4)GlcNAc(b1-4)GlcNAc
# Outline: as §1
# [10] = target: Fuc(a1-2)Gal(b1-3)GlcNAc(b1-2)Man(a1-3)[Fuc(a1-2)Gal(b1-3)GlcNAc(b1-2)Man(a1-6)]Man(b1-4)GlcNAc(b1-4)[Fuc(a1-6)]GlcNAc
# Outline: as §1
# [11] = target: Fuc(a1-2)Gal(b1-3)GlcNAc(b1-3)Gal(b1-4)Glc
# Outline: as §1
# [12] = target: Fuc(a1-2)Gal(b1-3)GlcNAc(b1-3)GalNAc
# Outline: as §1
# [13] = target: Fuc(a1-2)Gal(b1-3)GlcNAc(b1-3)[Fuc(a1-3)[Gal(b1-4)]GlcNAc(b1-6)]Gal(b1-4)Glc
# Outline: as §1
# [14] = target: Fuc(a1-2)Gal(b1-3)GlcNAc(b1-3)[Gal(b1-4)GlcNAc(b1-6)]Gal(b1-4)Glc
# Outline: as §1
# [15] = target: Fuc(a1-2)Gal(b1-3)[Fuc(a1-4)]GlcNAc
# Outline: as §1
# [16] = target: Fuc(a1-2)Gal(b1-3)[Fuc(a1-4)]GlcNAc(b1-2)Man(a1-3)[Fuc(a1-2)Gal(b1-3)[Fuc(a1-4)]GlcNAc(b1-2)Man(a1-6)]Man(b1-4)GlcNAc(b1-4)GlcNAc
# Outline: as §1
# [17] = target: Fuc(a1-2)Gal(b1-3)[Fuc(a1-4)]GlcNAc(b1-3)[Fuc(a1-3)[Gal(b1-4)]GlcNAc(b1-6)]Gal(b1-4)Glc
# Outline: as §1
# [18] = target: Fuc(a1-2)Gal(b1-3)[Fuc(a1-4)]GlcNAc(b1-3)[Gal(b1-4)GlcNAc(b1-6)]Gal(b1-4)Glc
# Outline: as §1
# [19] = target: Fuc(a1-2)Gal(b1-4)Glc
# Outline: as §1
# [20] = target: Fuc(a1-2)Gal(b1-4)Glc6S
# Outline: as §1
# [21] = target: Fuc(a1-2)Gal(b1-4)GlcNAc
# Outline: as §1
# [22] = target: Fuc(a1-2)Gal(b1-4)GlcNAc(b1-2)Man(a1-3)[Fuc(a1-2)Gal(b1-4)GlcNAc(b1-2)Man(a1-6)]Man(b1-4)GlcNAc(b1-4)GlcNAc
# Outline: as §1
# [23] = target: Fuc(a1-2)Gal(b1-4)GlcNAc(b1-2)Man(a1-3)[Fuc(a1-2)Gal(b1-4)GlcNAc(b1-2)Man(a1-6)]Man(b1-4)GlcNAc(b1-4)[Fuc(a1-6)]GlcNAc
# Outline: as §1
# [24] = target: Fuc(a1-2)Gal(b1-4)GlcNAc(b1-2)[Fuc(a1-2)Gal(b1-4)GlcNAc(b1-4)]Man(a1-3)[Fuc(a1-2)Gal(b1-4)GlcNAc(b1-2)Man(a1-6)]Man(b1-4)GlcNAc(b1-4)GlcNAc
# Outline: as §1
# [25] = target: Fuc(a1-2)Gal(b1-4)GlcNAc(b1-3)Gal(b1-4)GlcNAc
# Outline: as §1
# [26] = target: Fuc(a1-2)Gal(b1-4)GlcNAc(b1-3)Gal(b1-4)GlcNAc(b1-3)Gal(b1-4)GlcNAc
# Outline: as §1
# [27] = target: Fuc(a1-2)Gal(b1-4)GlcNAc(b1-3)GalNAc
# Outline: as §1
# [28] = target: Fuc(a1-2)Gal(b1-4)GlcNAc6S
# Outline: as §1
# [29] = target: Fuc(a1-2)Gal(b1-4)[Fuc(a1-3)]GlcNAc
# Outline: as §1
# [30] = target: Fuc(a1-2)Gal(b1-4)[Fuc(a1-3)]GlcNAc(b1-2)Man(a1-3)[Fuc(a1-2)Gal(b1-4)[Fuc(a1-3)]GlcNAc(b1-2)Man(a1-6)]Man(b1-4)GlcNAc(b1-4)GlcNAc
# Outline: as §1
binder,measurement,setting,value
"ASAL (Allium sativum), P83886 (protein) MGRTTSSPKAMMRIATVAAILTILASTCMARNVLTNGEGLYAGQSLDVEQYKFIMQDDCNLVLYEYSTPIWASNTGVTGKNGCRAVMQRDGNFVVYDVNGRPVWASNSVRGNGNYILVLQKDRNVVIYGSDIWSTGTYRRSVGGAVVMAMNGTVDGGSVIGPVVVNQNVTAAIRKVGTGAA",glycan array binding signal (z-score),[1],-0.276
same,glycan array binding signal (z-score),[2],-0.234
same,glycan array binding signal (z-score),[3],-0.231
same,glycan array binding signal (z-score),[4],-0.271
same,glycan array binding signal (z-score),[5],-0.278
same,glycan array binding signal (z-score),[6],-0.251
same,glycan array binding signal (z-score),[7],-0.267
same,glycan array binding signal (z-score),[8],-0.289
same,glycan array binding signal (z-score),[9],-0.102
same,glycan array binding signal (z-score),[10],0.067
same,glycan array binding signal (z-score),[11],-0.274
same,glycan array binding signal (z-score),[12],-0.269
same,glycan array binding signal (z-score),[13],-0.241
same,glycan array binding signal (z-score),[14],-0.228
same,glycan array binding signal (z-score),[15],-0.241
same,glycan array binding signal (z-score),[16],-0.211
same,glycan array binding signal (z-score),[17],-0.249
same,glycan array binding signal (z-score),[18],-0.204
same,glycan array binding signal (z-score),[19],-0.221
same,glycan array binding signal (z-score),[20],-0.153
same,glycan array binding signal (z-score),[21],-0.236
same,glycan array binding signal (z-score),[22],-0.231
same,glycan array binding signal (z-score),[23],-0.22
same,glycan array binding signal (z-score),[24],-0.079
same,glycan array binding signal (z-score),[25],-0.272
same,glycan array binding signal (z-score),[26],-0.25
same,glycan array binding signal (z-score),[27],-0.262
same,glycan array binding signal (z-score),[28],-0.272
same,glycan array binding signal (z-score),[29],-0.264
same,glycan array binding signal (z-score),[30],-0.19
